Out of some 350,000 compounds screened, about 260 (0.074%) were called active. Inconclusive means that the source gave no clear call. Such entries were picked first, then a sample of the others. Calls come from the whole dose curve; as a rule, active = well fitted inhibition curve with a large enough effect; inconclusive = small, poorly fitted or top-dose-only effect; inactive = no such curve, though single readings can be large or run the other way. Potencies beside an inconclusive call are fits to weak or partial responses and may not hold up.
target: Ferritin light chain (Equus caballus) (UniProt P02791); test: qHTS Assay for Identification of Novel General Anesthetics; conditions: apoferritin/1-aminoanthracene competitive binding, fluorescence; series mostly up to 77.5 µM; note: nearly all actives have a fitted effect of over 20% in size
Sequence of UniProt P02791 (P02791 whole entry, looked up): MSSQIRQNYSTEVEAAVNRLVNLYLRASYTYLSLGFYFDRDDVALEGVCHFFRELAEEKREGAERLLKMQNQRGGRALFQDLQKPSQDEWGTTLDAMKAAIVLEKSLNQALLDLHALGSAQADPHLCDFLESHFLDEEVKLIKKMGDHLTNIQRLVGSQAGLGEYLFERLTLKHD
Summary of the method: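 In PBS, apoferritin at 10 uM is loaded with 1-AMA from a 50% saturated solution. After 10 min of compound exposure at ambient temperature, reduced 535 nm fluorescence indicates probe displacement.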
Potency is the fitted concentration of half-maximal effect; tags give direction and shape of the fitted curve.

Potency, active:
CC(C)(C)c1ccc(C(=O)COC(=O)CN2C(=O)NC3(CCCC3)C2=O)cc1 25.1 µM

Potency, inactive:
O=C1C=C(c2ccc(Cl)cc2)OC2(CCCC2)O1, Cc1cc(C)c2c(-n3cccc3)nn(CC#N)c2n1, CCc1cccc(OCC(=O)Nc2cc(S(=O)(=O)N3CCOCC3)ccc2N2CCCC2)c1, CCc1nc(SCc2ccc(Cl)cc2)n[nH]1, N#Cc1cnc(SCC(=O)c2ccccc2)nc1N, CCOCCOC(=O)c1[nH]c2c(c1C)C(=O)CC(c1ccccc1)C2 (configuration not stated), COc1ccc(CNC(=O)Nc2cccc3ccccc23)cc1, O=C(COCc1cc(-c2cccs2)on1)Nc1cccc(Cl)c1Cl, Cc1ccc(NC(=O)c2cnc3ccccc3n2)cc1C, CC(=O)c1cccc(NC(=O)c2cccn2-c2nnc(N3CCCCC3)s2)c1, CCS(=O)(=O)c1ccc(Sc2nncn2C)c([N+](=O)[O-])c1, Cc1cc(C)c2c(c1)cc(C)c1nnc(SCC(=O)Nc3ccc(S(=O)(=O)N4CCCCC4)cc3)n12, O=C(NCc1ccco1)Nc1ccc(Br)cc1, CC1CCN(C(=O)CN2CCSc3ccccc32)CC1, CCOc1ccc(C(=O)Nc2nnc(S(=O)(=O)N(CC)c3ccccc3C)s2)cc1, C/C(=N\Nc1nccnc1Cl)c1ccc(Br)cc1

Potency, inconclusive:
Cc1cc(Cl)ccc1Oc1nccc(N(C)C)c1C#N 14.1 µM [inhibitor, partial curve], CCn1ncc(C2=NOC(C(=O)Nc3cnn(C45CC6CC(CC(C6)C4)C5)c3)C2)c1C (configuration not stated) 15.8 µM [inhibitor, partial curve], O=C(CSc1nc2ccc([N+](=O)[O-])cc2[nH]1)NC1CCCCC1 17.8 µM [inhibitor, partial curve], O=S(=O)(NCc1ccc2c(c1)OCO2)c1ccc(Cl)s1 25.1 µM [inhibitor, partial curve], CN(Cc1ccccc1)C(=O)c1[nH]cnc1C(=O)N[C@@H](Cc1ccccc1)C(=O)OC(C)(C)C 50.1 µM [inhibitor, single point], COc1cc(NC(=S)Nc2cccc(Cl)c2Cl)c(OC)cc1Cl 39.8 µM [inhibitor, partial curve], CCc1ccccc1NC(=O)CSc1ncc(S(=O)(=O)c2ccccc2)c(N)n1 50.1 µM [inhibitor, single point], CCCN(CCC)S(=O)(=O)c1ccc(C)cc1 25.1 µM [inhibitor, partial curve], O=c1c(Cl)c(Cl)cnn1Cc1ccccc1Cl 35.5 µM [inhibitor, single point], Cn1cccc1/C=N\NC(=O)C1COc2ccc(C(C)(C)C)cc2O1 (configuration not stated) 50.1 µM [inhibitor, single point], CCC(C)C(NC(=O)OCc1ccccc1)C(=O)OCN1C(=O)c2ccccc2C1=O (configuration not stated) 22.4 µM [inhibitor, partial curve], CCOC(=O)c1cc(=O)n(Cc2ccccc2C)c2ccccc12 20 µM [inhibitor, partial curve], Cn1cc(CN2CCCC(C(=O)Nc3cccc(-c4cc5ccccc5[nH]4)c3)C2)cn1 (configuration not stated) 17.8 µM [inhibitor, partial curve], Cc1ccc(NC(=O)c2cccs2)cc1NC(=O)c1ccc(F)cc1 15.8 µM [inhibitor, partial curve], CSc1cccc(NC(=O)C2CCN(c3ncnc4c3nc3n4CCCCC3)CC2)c1 28.2 µM [inhibitor, single point], CCc1ccc2oc(=O)cc(CN3CCC(C)CC3)c2c1 31.6 µM [inhibitor, partial curve], CC1Oc2ccccc2N(CC(=O)c2cccc(Cl)c2)C1=O (configuration not stated) 7.08 µM [inhibitor, partial curve], CC(C)(C)c1ccc(Oc2nc3ccccn3c(=O)c2/C=C(\C#N)c2nc3ccccc3[nH]2)cc1 25.1 µM [inhibitor, partial curve, poor fit], CCC(C)c1ccc(NC(=O)NCCN2CCCCC2)cc1 (configuration not stated) 25.1 µM [inhibitor, partial curve, poor fit], CC(=O)NCC(=O)OCC(=O)c1ccc(C)c(C)c1 35.5 µM [inhibitor, partial curve], CO[C@H]1C=CO[C@@]2(C)Oc3c(C)c(O)c4c(O)c(c(C=NN5CCN(C6CCCC6)CC5)c(O)c4c3C2=O)NC(=O)C(C)=CC=C[C@H](C)[C@H](O)[C@@H](C)[C@@H](O)[C@@H](C)[C@H](OC(C)=O)[C@@H]1C 31.6 µM [inhibitor, partial curve], CC(C)N(Cc1nc(-c2ccccc2)no1)C(=O)Cc1ccccc1 22.4 µM [inhibitor, partial curve], Cc1c(C)n(C)c2ccc(C(=O)NCc3cccs3)cc12 28.2 µM [inhibitor, single point], Cc1nn(Cc2ccc(C(=O)N3c4ccc(F)cc4CCC3C)o2)c(C)c1Br (configuration not stated) 35.5 µM [inhibitor, partial curve], C=CC(C)(O)CC/C=C(\C)CCC=C(C)C (configuration not stated) 12.6 µM [inhibitor, partial curve], CCN(CC)CCOC(=O)C1(c2ccccc2)CCCC1 20 µM [inhibitor, partial curve, poor fit], CC1CCCCC1NC(=O)COC(=O)Cc1ccc(Br)cc1 (configuration not stated) 28.2 µM [inhibitor, partial curve], O=C(CSc1cccc2cccnc12)N/N=C/c1cccc(O)c1 20 µM [inhibitor, partial curve], CC1(C)CC(=O)c2c(Cc3ccccc3)noc2C1 10 µM [inhibitor, partial curve], Cc1cc2oc(=O)cc(CN3CCCCC3C)c2cc1C (configuration not stated) 28.2 µM [inhibitor, partial curve], Cc1cc(C)c2c(=O)c3c(oc2c1)C(=O)N(Cc1ccc(F)cc1)C3c1cccc(O)c1 (configuration not stated) 7.94 µM [inhibitor, partial curve], CC(C)(C)NC(=O)NC(=O)COC(=O)CCCc1c[nH]c2ccccc12 39.8 µM [inhibitor, partial curve], CCCCCn1c(SCc2ccncc2)nc2cc(C(=O)NCc3ccco3)ccc2c1=O 28.2 µM [inhibitor, partial curve], O=C(O)CN1C(=O)/C(=C\c2cccc(OCc3ccccc3)c2)SC1=S 39.8 µM [inhibitor, single point], Cc1ccc2nc(N(CCCN(C)C)C(=O)c3sc4ccccc4c3Cl)sc2c1 50.1 µM [inhibitor, single point], CN(C)/C=C/C(=O)c1cc(F)cc(C(F)(F)F)c1 39.8 µM [inhibitor, partial curve], Cc1cc(OCCCCCNCCO)cc(C)c1Cl 35.5 µM [inhibitor, partial curve], O=S1(=O)C=C(SCc2cccc(Cl)c2)Nc2ccccc21 14.1 µM [inhibitor, partial curve], Cn1c(N)c(C(=O)COC(=O)c2cc(C(F)(F)F)nc3c(C(F)(F)F)cccc23)c(=O)n(C)c1=O 11.2 µM [inhibitor, partial curve], O=C(OCC#CCSc1nnc(-c2ccccc2)o1)c1cccs1 28.2 µM [inhibitor, partial curve], O=C(OCc1ccccc1C(F)(F)F)c1cc([N+](=O)[O-])ccc1N1CCOCC1 31.6 µM [inhibitor, partial curve], CC(C)C(NS(=O)(=O)c1ccccc1)C(=O)OCc1cc([N+](=O)[O-])cc2c1OCOC2 (configuration not stated) 20 µM [inhibitor, partial curve], CCn1ccnc1CNCc1cn(-c2cc(C)ccc2C)nc1-c1ccccc1 28.2 µM [inhibitor, partial curve], Cc1ccc2c(c1C)OC(=O)CC2c1ccccc1 (configuration not stated) 22.4 µM [inhibitor, single point], CC(C)(C)N(Cc1ccccc1)C(=O)COC(=O)c1cccc([N+](=O)[O-])c1 35.5 µM [inhibitor, partial curve], COc1c(C)cc(C(=O)C2CCCN(Cc3ccc(Oc4ncccn4)cc3)C2)cc1C (configuration not stated) 31.6 µM [inhibitor, partial curve], Cc1ccc(Cn2ccn(CC(=O)Nc3ccccc3C(F)(F)F)c(=O)c2=O)cc1 1.78 µM [inhibitor, partial curve], Cc1ccc(SCc2ccc(C(=O)Nc3nccs3)o2)cc1 22.4 µM [inhibitor, partial curve], COC(=O)c1ccccc1NC(=O)CSc1nc(-c2ccccc2)cc(C(F)(F)F)n1 7.94 µM [inhibitor, partial curve], COc1ccc(CNCCC(c2ccc(F)cc2)c2ccc(OC(C)C)cc2)cc1OC (configuration not stated) 14.1 µM [inhibitor, partial curve]
